# Data from PubChem BioAssay AID686978 (National Center for Advancing Translational Sciences (NCATS), 2013).
# Where “and” joins values, the source holds several entries; their conditions need not be identical. Equal values may be shown once. Hit rate of the full screen: of about 420,000 compounds, about 64,000 (15%) were called active. This list was built around the results that the source calls inconclusive (neither active nor inactive); the mix of calls is not that of the screen. Calls follow the shape of the dose curve; as a rule, active = well fitted inhibition curve with a large enough effect; inconclusive = small, poorly fitted or top-dose-only effect; inactive = flat fitted curve, though single readings scatter. Potencies beside an inconclusive call are fits to weak or partial responses and may not hold up.
# Assay: qHTS for Inhibitors of human tyrosyl-DNA phosphodiesterase 1 (TDP1): qHTS in cells in absence of CPT; also: nearly all actives have a fitted effect of over 55% in size
# Conditions: DT40 Tdp1-/- hTDP1 cells, no CPT, ATP luminescence, 48 h; activity change, negative = growth inhibition: at 46.2 µM (top of the series) unless noted
# Summary of the method: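 Chicken DT40 Tdp1-/- cells stably complemented with human TDP1 were seeded at 400 cells/well with DMSO in place of 20 nM camptothecin. After compound pinning, cells grew at least 48 hr at 37 °C; viability read by CellTiter-Glo luminescence.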
# % is scaled to controls: 0 for no effect and ±100 for the full control effect; potency is read from the fitted curve at half-maximal effect; tags tell the direction and shape of the fitted curve.
Structure (SMILES),Potency,"activity change, negative = growth inhibition"
O=C1CC(c2ccco2)CC2=C1C(c1ccccc1)n1nc(C(F)(F)F)nc1N2 (configuration not stated),"inconclusive: 9.2 µM [inhibitor, partial curve, poor fit]",
COCCC(=O)N1CCC(Oc2ccc(C(=O)NCCCC3CCCC3)cc2)CC1,active: 20.6 µM,
C#CCNC(=O)C1=C[C@H](C)[C@@H](CCCO)[C@H](OCC)O1,,inactive: -0.0237%
CCOC(=O)N1CCC(N2Cc3cccc(C(=O)NC(C)c4ccc5c(c4)OCCO5)c3C2=O)CC1 (configuration not stated),active: 23.1 µM,
CCOC(=O)N1CCN(C(=O)C(=O)NN)CC1,,inactive: -2.46%
CC[C@@H](C(=O)n1nc(C)cc1C)[C@H](NS(=O)(=O)c1ccc(C)cc1)c1ccccc1,active: 20.6 µM,
C/C(N)=C(/C#N)C(=O)CSc1nnc(-c2ccc3c(c2)OCO3)o1,"inconclusive: 16.4 µM [inhibitor, partial curve, poor fit]",
CCOC(=O)[C@]12CCC=C1N(Cc1ccccc1)C(=O)[C@H](CC(=O)NCc1ccc(C)o1)C2,,inactive: -18.2%
CN1C[C@@H]2C(c3ccccc3)C3(c4ccc(C#N)cc4)CC2(C3)[C@H]1c1ccccc1 (some centres not stated),"inconclusive: 18.4 µM [inhibitor, single point]",
COc1ccc(C(=O)CC(Nc2ccc([N+](=O)[O-])cc2)c2ccc(OC)cc2)cc1 (configuration not stated),active: 18.4 µM,
CCC(C)(C)NC(=O)C(c1ccc(C)o1)N(Cc1ccc2c(c1)OCO2)C(=O)c1snc(C(N)=O)c1N (configuration not stated),,inactive: -28.5%
Cc1ccccc1C(=O)N1CCN(c2ccc(NC(=O)c3cccnc3Cl)cc2)CC1,"inconclusive: 16.4 µM [inhibitor, partial curve]",
COCCSc1ccccc1C(=O)Nc1ccccc1C(C)C,"inconclusive: 23.1 µM [inhibitor, single point]",
O=C(NCc1ccccn1)c1ccc(N2CCCC2=O)cc1,,inactive: -0.92%
Cc1ccc(S(=O)(=O)N(C)CCCC(=O)Nc2ccncc2)cc1,active: 13 µM,
S=C(NCc1ccco1)Nc1ccccn1,"inconclusive: 25.9 µM [inhibitor, single point]",
CC(C#N)(NC(=O)CN1CCN(S(=O)(=O)c2ccc(Br)cc2Cl)CC1)C1CC1 (configuration not stated),"inconclusive: 13 µM [inhibitor, partial curve]",
CCOCCCNC(=O)c1cc2c(=O)n3ccccc3nc2s1,"inconclusive: 16.4 µM [inhibitor, single point]",
COc1cc(C(=O)NC2CCN(Cc3ccccc3)CC2)cc(Cl)c1OC,"inconclusive: 18.4 µM [inhibitor, single point]",
Cc1ccc(C)c(N2CCN(C(=O)c3ccc(CS(=O)Cc4ccc(Cl)cc4)o3)CC2)c1 (configuration not stated),"inconclusive: 20.6 µM [inhibitor, single point]",
Oc1cccc(-c2c3nc(c(-c4cccc(O)c4)c4ccc([nH]4)c(-c4cccc(O)c4)c4nc(c(-c5cccc(O)c5)c5ccc2[nH]5)CC4)C=C3)c1,active: 18.8 µM,
Nc1c(N(CCC2=CCCCC2)C(=O)c2ccccc2F)c(=O)[nH]c(=O)n1Cc1ccccc1,,inactive: -25.1%
COc1ccc(N2CCN(C(=O)c3ccc(NC(=O)c4nsc5ccccc45)cc3)CC2)cc1,"inconclusive: 16.4 µM [inhibitor, single point]",

Structure (SMILES),Potency,"activity change, negative = growth inhibition"
Cc1ccccc1-n1ncc(C(C)NC(=O)c2ccccc2)c1C (configuration not stated),"inconclusive: 23.1 µM [inhibitor, single point]",
Cc1nn(CC(=O)N2CCc3ccccc32)c(C)c1S(=O)(=O)NC(C)(C)C,,inactive: -21.6%
COc1ccc(C)cc1S(=O)(=O)NCC(c1ccco1)N1CCc2ccccc2C1 (configuration not stated),"inconclusive: 29.1 µM [inhibitor, single point]",
Cc1c(Cl)cccc1NC(=O)C1NC(=O)CC1c1ccccc1 (configuration not stated),"inconclusive: 0.0082 µM [inhibitor, full curve, poor fit]",
CCOc1ccc(C(=O)Nc2cc3c(cc2N2CCCC2)n(CC)c(=O)n3CC)cc1OCC,"inconclusive: 23.1 µM [inhibitor, partial curve]",
CCn1c(SCC(=O)N2CCCc3ccccc32)nc2ccccc2c1=O,active: 14.6 µM,
COc1ccc(N2CC(C(=O)N[C@H](C(=O)NC3CCCC3)C(C)C)CC2=O)cc1 (some centres not stated),,inactive: 22.1%
CCc1nc2c(OCCn3cccc3)cccn2c1N(C)C(=O)C1CC1,"inconclusive: 18.4 µM [inhibitor, single point]",
CCOC1=C2[C@@H](CN(S(=O)(=O)c3ccc(C)cc3)[C@H]2c2ccccc2F)[C@H]2C(=O)N(Cc3ccccc3)C(=O)[C@H]2C1,"inconclusive: 23.1 µM [inhibitor, single point]",
CC(C)(C)c1ccc(C(=O)Nc2cc(-c3ccccc3)nn2-c2ccccc2)cc1,,inconclusive: -31.5% [inhibitor]
CC(OC(=O)C1=Cc2ccccc2OC1)C(=O)NC1CCCC1 (configuration not stated),"inconclusive: 18.4 µM [inhibitor, single point]",
CC(NC(=O)C1CCCN(S(=O)(=O)c2ccc(-n3cnnn3)cc2)C1)c1ccc(F)cc1 (configuration not stated),"inconclusive: 16.4 µM [inhibitor, single point]",
Nc1cc(Cl)ccc1CN1C(=O)c2ccccc2C1=O,"inconclusive: 16.4 µM [inhibitor, single point]",
COc1cccc(-n2c(SC)nnc2C2CCN(Cc3nc4ccccc4s3)CC2)c1,"inconclusive: 18.4 µM [inhibitor, single point]",
CNC(C)[C@@H]1CC[C@@H](N)[C@@H](O[C@H]2[C@H](O)[C@@H](O[C@H]3OC[C@](C)(O)[C@H](NC)[C@H]3O)[C@H](N)C[C@@H]2N)O1 (some centres not stated),,inactive: -5.56% [at 21.1 µM]
COc1cccc(CN(C)C(=O)CSCC(=O)Nc2ccc(C)cc2)c1OC,active: 11.6 µM,
CCc1nnc(NC(=O)c2cc(-c3ccccc3)nn2-c2ccccc2)s1,"inconclusive: 29.1 µM [inhibitor, single point]",
CCCNC(=O)C1(C)CCN(C(=O)c2ccc3ccccc3c2)C1 (configuration not stated),,inactive: 4.04%
CCOC(=O)c1c(C)c2c(=O)[nH]cnc2n1-c1ccccc1,"inconclusive: 5.17 µM [inhibitor, full curve]",
Cc1ccc(CNc2nc3c(S(=O)(=O)c4ccc(C)c(C)c4)nnn3c3ccc(Cl)cc23)cc1,"inconclusive: 14.6 µM [inhibitor, partial curve]",
CCCCN(C(=O)COC(=O)c1ccc(C)s1)c1c(N)n(CCC)c(=O)[nH]c1=O,"inconclusive: 20.6 µM [inhibitor, single point]",
C[n+]1c(-c2ccccc2)sc([S-])c1-c1ccccc1,active: 9.2 µM,
CCOc1ccc(S(=O)(=O)N2CCN(C(=O)CCOc3ccccc3C)CC2)cc1,active: 18.4 µM,

Structure (SMILES),Potency,"activity change, negative = growth inhibition"
COc1ccccc1/C=C/C=C1\Oc2c(ccc(O)c2CN2CCN(CCO)CC2)C1=O,"inconclusive: 29.1 µM [inhibitor, single point]",
Cc1ccccc1-n1c(Cn2c(=O)sc3ccccc32)nnc1SC(C)C,"inconclusive: 25.9 µM [inhibitor, single point]",
Cc1ccc(NC(=O)CN(C)C(=O)c2cc3ccccc3o2)cc1,,inconclusive: -30.8% [inhibitor]
Cc1cc(-c2n[nH]c(=S)n2/N=C/c2ccc(C)s2)n[nH]1,,inactive: 8.47%
Nc1c(C2CCCCC2)c(=O)on1C(=O)c1ccccc1,"inconclusive: 20.6 µM [inhibitor, partial curve]",
CCN(CC)CCN1C(=O)Cn2c(C)c(C)c3cccc1c32,"inconclusive: 20.6 µM [inhibitor, partial curve]",
Cc1ccc(CNC(=O)CCn2ccc3cc(S(=O)(=O)N4CCCC4)ccc32)cc1,"inactive and inconclusive: 29.1 µM [inhibitor, single point]",
Cc1ccc(NC2c3ncccc3C(=O)N2Cc2cccs2)cc1 (configuration not stated),,inactive: -3.76%
Cc1cc(C(=O)N/N=C\c2ccc(COc3ccc([N+](=O)[O-])cc3)o2)ccc1[N+](=O)[O-],"inconclusive: 13 µM [inhibitor, partial curve]",
CC1CCN(C(=O)CSc2nc3c([nH]c4ccccc43)c(=O)n2-c2ccccc2)CC1,,inactive: 10.3%
CC1=CC(C)C2(CO)COC(c3cccnc3)C1C2C (configuration not stated),"inconclusive: 29.1 µM [inhibitor, single point]",
CC(=O)c1ccc(N2CCN(c3ncccn3)CC2)cc1,,inactive: -14%
O=C(Nc1ccccc1-c1nc2ccccc2[nH]1)c1ccc(N2C(=O)CCC2=O)cc1,active: 9.2 µM,
Cc1ccc(CSc2oc(-c3ccco3)nc2S(=O)(=O)c2ccc(Br)cc2)cc1,"inconclusive: 16.4 µM [inhibitor, single point]",
c1ccc(-c2nc(NC3CC3)nc(-n3ccnc3)n2)cc1,"inconclusive: 18.4 µM [inhibitor, single point]",
O=C(Nc1cccc(C(=O)Nc2cccc(Br)c2)c1)c1ccccc1,"inconclusive: 25.9 µM [inhibitor, single point]",
Cc1cc(C)cc(N(CC(=O)NCc2ccccc2)C(=O)CCC(=O)Nc2ccccn2)c1,"inconclusive: 29.1 µM [inhibitor, single point]",
O=C1NC(c2cccs2)Nc2ccccc21 (configuration not stated),active: 8.2 µM,
Cc1ccc(S(=O)(=O)N(C)C)cc1NC(=O)CSc1nncs1,,inactive: 9.28%
CCc1ccc(NC(=O)Cn2c(=O)n(Cc3nc(C)no3)c(=O)c3cc4c(cc32)OCO4)cc1,"inconclusive: 16.4 µM [inhibitor, partial curve]",
O=C(CN1C(=O)NC(Cc2c[nH]c3ccccc23)C1=O)Nc1ccc(Br)cc1F (configuration not stated),"inconclusive: 29.1 µM [inhibitor, single point]",
